Results reported in patent publication US20080267971A1 (published 2008).

Assays:
human Angiopoietin-2 [1] = molecular target: T1, human Angiopoietin-2 (human, UniProt O15123 19-496); test: competition ELISA: biotin-Ang-2 on coated Tie2/Fc
T1 construct: Mostly bought recombinant protein (R&D Systems 623-AM/CF, 623-AN; biotinylated BT623) or supernatant of transfected 293F cells; also called Ang-2; rhAng-2
T1 sequence: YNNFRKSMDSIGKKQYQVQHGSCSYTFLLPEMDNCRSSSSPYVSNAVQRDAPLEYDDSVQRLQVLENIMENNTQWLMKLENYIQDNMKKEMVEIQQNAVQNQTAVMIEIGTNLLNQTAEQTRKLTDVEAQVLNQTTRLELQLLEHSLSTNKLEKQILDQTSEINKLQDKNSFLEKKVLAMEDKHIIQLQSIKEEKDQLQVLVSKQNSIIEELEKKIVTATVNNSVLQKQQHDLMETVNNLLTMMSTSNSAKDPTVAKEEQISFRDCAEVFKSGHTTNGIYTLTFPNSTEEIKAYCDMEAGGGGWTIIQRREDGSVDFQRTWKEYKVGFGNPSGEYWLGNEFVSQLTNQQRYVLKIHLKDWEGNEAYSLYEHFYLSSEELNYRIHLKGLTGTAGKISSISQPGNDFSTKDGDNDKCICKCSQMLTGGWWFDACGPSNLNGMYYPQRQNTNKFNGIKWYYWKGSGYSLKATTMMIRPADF
Protocol: 96-well Nunc Immplates™ were coated with 100 μl of recombinant human Tie2/Fc fusion protein (R&D Systems, Inc., Cat. No. 313-TI-100) at 4 μg/ml by incubating overnight at 4° C. The plates were washed four times using Phosphate Buffer Saline (PBS) with a Skan™ Washer 300 station (SKATRON). The wells were blocked by 100 μl of ABX-blocking buffer (0.5% BSA, 0.1% Tween, 0.01% Thimerosal in PBS) for 1 hour.
The plates were incubated at room temperature for two hours before the unbound molecules were washed off. […] After washing twice, the bound Streptavidin was detected by HRP substrate (R&D Systems, Cat. No. DY998). The plates were incubated for 30 minutes before 450 stop solution (100 μl/well, BioFX, Cat# BSTP-0100-01) was added to terminate the reaction. The light absorbance at 450 nm was determined by a Spectramax Plus reader.
Each concentration of the mAb was tested in duplicate. The concentration-response relationship was found by curve fitting using Graphpad Prism™ graphic software (non-linear, Sigmoid curve). The maximal inhibition (efficacy) and IC₅₀ (potency) were calculated by the software.

human Angiopoietin-2 [2] = molecular target: T1, human Angiopoietin-2; test: Biacore, mAb captured
Protocol: The label-free surface plasmon resonance (SPR), or Biacore, was utilized to measure the antibody affinity to the antigen. For this purpose, a high-density goat anti-human antibody surface over a CM5 Biacore chip was prepared using routine amine coupling. All the purified mAbs were diluted to approximately 8 μg/ml in HBS-P running buffer containing 100 μg/ml BSA and 10 mg/mL carboxymethyldextran. Each mAb was captured on a separate surface using a 42-second contact time, and a 5-minute wash for stabilization of the mAb baseline.
Data were fit globally to a 1:1 interaction model to determine the binding kinetics.

[3] = molecular target: T2, Mouse/Human Ang-2 StuI chimeric molecule (mouse; human, UniProt O35608 19-496); test: ELISA
T2 construct: also called M/H Stul 310-496
T2 chain: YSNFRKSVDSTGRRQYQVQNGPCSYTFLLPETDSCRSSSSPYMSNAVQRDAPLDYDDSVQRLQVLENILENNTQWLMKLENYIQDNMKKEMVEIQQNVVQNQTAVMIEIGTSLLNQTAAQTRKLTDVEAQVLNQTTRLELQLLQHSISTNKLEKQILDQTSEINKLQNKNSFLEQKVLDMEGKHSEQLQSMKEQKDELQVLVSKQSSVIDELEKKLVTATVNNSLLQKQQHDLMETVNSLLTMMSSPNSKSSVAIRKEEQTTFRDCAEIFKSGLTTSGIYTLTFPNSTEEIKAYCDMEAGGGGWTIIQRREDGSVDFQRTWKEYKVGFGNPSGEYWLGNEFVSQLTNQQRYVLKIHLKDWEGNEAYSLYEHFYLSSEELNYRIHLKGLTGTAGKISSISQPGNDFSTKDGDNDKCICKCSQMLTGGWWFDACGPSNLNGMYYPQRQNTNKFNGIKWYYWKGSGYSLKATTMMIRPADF

human Ang-2 V345M = molecular target: T3, human Ang-2 V345M (human, UniProt O15123 19-496); test: ELISA
T3 sequence: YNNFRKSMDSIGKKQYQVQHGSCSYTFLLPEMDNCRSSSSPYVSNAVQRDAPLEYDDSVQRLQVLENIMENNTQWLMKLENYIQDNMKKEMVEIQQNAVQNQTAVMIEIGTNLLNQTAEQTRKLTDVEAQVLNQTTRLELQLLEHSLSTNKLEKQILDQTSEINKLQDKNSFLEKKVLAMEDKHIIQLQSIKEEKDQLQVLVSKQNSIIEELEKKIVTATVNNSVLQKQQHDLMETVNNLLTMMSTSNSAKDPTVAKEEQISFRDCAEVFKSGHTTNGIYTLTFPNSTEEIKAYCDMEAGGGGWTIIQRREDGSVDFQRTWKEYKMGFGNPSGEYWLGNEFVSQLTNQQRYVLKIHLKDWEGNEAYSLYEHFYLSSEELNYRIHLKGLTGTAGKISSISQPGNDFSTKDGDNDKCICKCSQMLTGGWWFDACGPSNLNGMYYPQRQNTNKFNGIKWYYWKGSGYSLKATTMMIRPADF

[4] = molecular target: T4, Human Ang-1/2 BsmI chimeric molecule (human); test: ELISA
T4 chain: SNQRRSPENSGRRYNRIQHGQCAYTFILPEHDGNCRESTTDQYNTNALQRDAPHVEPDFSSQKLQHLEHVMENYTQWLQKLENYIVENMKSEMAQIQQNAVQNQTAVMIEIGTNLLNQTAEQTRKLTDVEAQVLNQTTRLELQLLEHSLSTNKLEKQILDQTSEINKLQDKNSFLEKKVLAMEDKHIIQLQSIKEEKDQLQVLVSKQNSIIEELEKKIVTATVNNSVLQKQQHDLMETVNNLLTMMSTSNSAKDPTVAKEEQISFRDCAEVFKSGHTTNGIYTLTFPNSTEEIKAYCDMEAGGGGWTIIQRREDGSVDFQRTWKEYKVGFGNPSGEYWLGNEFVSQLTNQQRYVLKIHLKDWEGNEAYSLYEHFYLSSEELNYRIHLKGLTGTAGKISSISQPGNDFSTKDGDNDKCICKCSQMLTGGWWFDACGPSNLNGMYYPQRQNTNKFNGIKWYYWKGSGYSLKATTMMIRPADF

human Ang-2443 = molecular target: T5, human Ang-2443 (human, UniProt O15123 19-496); test: ELISA
T5 construct: Splice variant missing amino acids 96-148; supernatant of transfected 293F cells
T5 sequence: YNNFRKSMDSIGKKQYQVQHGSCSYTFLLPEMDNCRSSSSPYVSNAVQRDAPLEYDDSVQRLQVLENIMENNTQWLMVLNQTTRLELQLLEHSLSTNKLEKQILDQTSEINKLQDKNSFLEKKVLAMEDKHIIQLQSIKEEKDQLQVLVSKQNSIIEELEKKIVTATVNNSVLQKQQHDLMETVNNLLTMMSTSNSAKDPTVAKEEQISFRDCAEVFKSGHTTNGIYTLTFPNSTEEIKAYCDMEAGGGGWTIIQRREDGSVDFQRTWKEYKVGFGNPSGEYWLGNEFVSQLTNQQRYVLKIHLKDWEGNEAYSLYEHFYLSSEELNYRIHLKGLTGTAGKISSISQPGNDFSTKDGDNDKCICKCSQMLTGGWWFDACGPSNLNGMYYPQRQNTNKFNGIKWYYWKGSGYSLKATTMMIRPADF

human Ang-2 H375Q = molecular target: T6, human Ang-2 H375Q (human, UniProt O15123 19-496); test: ELISA
T6 sequence: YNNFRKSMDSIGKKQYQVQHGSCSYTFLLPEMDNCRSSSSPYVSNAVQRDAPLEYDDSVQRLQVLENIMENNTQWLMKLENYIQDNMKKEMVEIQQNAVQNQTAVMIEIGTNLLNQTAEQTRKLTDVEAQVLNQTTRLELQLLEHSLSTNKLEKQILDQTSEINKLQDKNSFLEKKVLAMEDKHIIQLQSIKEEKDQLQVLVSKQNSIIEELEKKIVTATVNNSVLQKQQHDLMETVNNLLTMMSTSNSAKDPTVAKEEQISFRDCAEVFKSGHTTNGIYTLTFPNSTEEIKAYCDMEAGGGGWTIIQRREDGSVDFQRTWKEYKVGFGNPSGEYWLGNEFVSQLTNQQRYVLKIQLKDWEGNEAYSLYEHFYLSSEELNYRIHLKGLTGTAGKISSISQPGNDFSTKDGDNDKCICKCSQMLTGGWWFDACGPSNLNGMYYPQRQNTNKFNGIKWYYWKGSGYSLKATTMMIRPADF

[5] = molecular target: T7, Mouse/Human chimeric Ang-2 with the human StuI-TfiI fragment (mouse/human chimera, UniProt O35608 19-496); test: ELISA
T7 construct: also called Stu-Tfil 310-400
T7 chain: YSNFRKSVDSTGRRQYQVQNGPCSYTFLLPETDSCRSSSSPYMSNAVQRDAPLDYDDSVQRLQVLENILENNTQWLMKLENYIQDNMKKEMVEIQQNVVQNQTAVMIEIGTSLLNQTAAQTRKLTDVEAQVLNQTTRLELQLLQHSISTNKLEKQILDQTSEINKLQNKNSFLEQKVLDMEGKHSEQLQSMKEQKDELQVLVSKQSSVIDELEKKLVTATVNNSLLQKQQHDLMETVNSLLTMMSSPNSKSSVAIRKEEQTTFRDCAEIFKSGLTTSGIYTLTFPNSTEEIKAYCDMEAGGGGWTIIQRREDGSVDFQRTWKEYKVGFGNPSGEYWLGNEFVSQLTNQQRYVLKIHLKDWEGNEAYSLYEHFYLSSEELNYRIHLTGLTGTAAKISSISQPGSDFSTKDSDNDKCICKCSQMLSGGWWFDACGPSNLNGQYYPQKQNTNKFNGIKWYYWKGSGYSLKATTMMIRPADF

human Angiopoietin-2 [6] = molecular target: T1, human Angiopoietin-2; test: inhibition of rhAng-2 binding to its receptor

B1: mAb 5.78.3 (antibody, V domains shown)
VH: not shown
VL: DIVMTQSPDSLAVSLGERATINCKSSQSVLYSSNNQNFLAWYQQKPGQPPKLLIYWASTRESGVPDRFSGSGSGTDFTLTISSLQAEDVAVYYCHQYYSTPITFGQGTRLEIKR
notes: Human hybridoma IgG (XenoMouse); the line 5.78 has entries of its own (425, 427); also called 5.78.1; x5.78
EC50 (human Angiopoietin-2 [1]): 5.97 µg/mL
Efficacy (ratio of bound Ang-2 with mAb 30 µg/ml versus without) (human Angiopoietin-2 [1]): 0.262 ratio
kon (human Angiopoietin-2 [2]): 240000 M⁻¹ s⁻¹
% of binding to human Ang-2 [3]: 100%
% of binding to human Ang-2 (human Ang-2 V345M): 100%
% of binding to human Ang-2 [4]: 100%
% of binding to human Ang-2 (human Ang-2443): 100%
% of binding to human Ang-2 (human Ang-2 H375Q): 100%
% of binding to human Ang-2 [5]: 100%
OD650 in inhibition assay (human Angiopoietin-2 [6]): 0.0984 OD650
